The record followed here is the supplement of paper PMC9446081.

SMILES strings stand for the structures. Out of some 39,000 compounds screened, about 220 (0.56%) showed activity. Some of the results follow.
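Also: static incubation at 37 °C against the wild-type strain, values averaged over two biological replicates.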

In this assay the test system is Escherichia coli K-12 BW25113. As to the kind of experiment: relative growth (OD600 normalised to plate interquartile mean) (fraction); higher = less growth inhibition, active = 0.2 or less. The settings on record: 50 µM; LB; incubation time: overnight (16-24 h).
Consider `NC1CCN(Cc2nc3ccccc3[nH]2)CC1`, for which the relative growth was inactive: 0.937. The result for `COc1ccccc1C#Cc1ccc2c(c1)O[C@H](CN(C)Cc1cncnc1)[C@H](C)CN([C@H](C)CO)S2(=O)=O` reads inactive: 0.922; that for `C[C@H]1CN([C@@H](C)CO)C(=O)Cc2cc(NC(=O)c3ccncc3)ccc2O[C@H]1CN(C)Cc1ccc2c(c1)OCO2`, inactive: 1.03. For `O=S(=O)(Cc1ccccc1)Nn1cnnc1`, the relative growth is inactive: 1.02. The value for `Cc1noc(C)c1S(=O)(=O)Nc1ccc2c(c1)C(=O)N([C@H](C)CO)C[C@@H](C)[C@H](CN(C)Cc1ccccc1)OCCCC[C@H](C)O2` was inactive: 1; that for `C[C@@H]1CCCCO[C@H](CN(C)C(=O)CCC(F)(F)F)[C@@H](C)CN([C@H](C)CO)C(=O)c2cc(NS(=O)(=O)c3ccc(F)cc3)ccc2O1` was inactive: 0.989; that for `Cc1noc(C)c1S(=O)(=O)Nc1cccc2c1O[C@@H](CN(C)S(=O)(=O)c1cccs1)[C@@H](C)CN([C@@H](C)CO)C2=O` was inactive: 1.01.

As to `C[C@@H]1CN([C@H](C)CO)C(=O)c2cccc(NC(=O)CCCCCC(=O)Nc3ccccc3N)c2O[C@@H]1CN(C)Cc1ccc(Cl)c(Cl)c1`, the relative growth is inactive: 0.986. The result for `C[C@@H]1CCCCO[C@H](CN(C)CC2CCCCC2)[C@H](C)CN([C@H](C)CO)C(=O)c2cc(NC(=O)Nc3ccc(C(F)(F)F)cc3)ccc2O1` reads inactive: 0.985; that for `O=C(O)CCCN1C(=O)c2cccc3cccc(c23)C1=O`, inactive: 1.1. `C[C@@H]1CN([C@H](C)CO)C(=O)c2cc(NC(=O)Nc3ccccc3)ccc2O[C@@H](C)CCCCO[C@@H]1CN(C)Cc1ccc(Cl)c(Cl)c1`: the relative growth is inactive: 1.

Consider `COc1ccc(S(=O)(=O)Nc2ccc3c(c2)CC(=O)N([C@H](C)CO)C[C@H](C)[C@H](CN(C)Cc2ccc(C(=O)O)cc2)O3)cc1`, for which the relative growth was inactive: 1.02.

`COc1ccc(CN(C)C[C@H]2OCCCC[C@H](C)Oc3ccc(NC(=O)NC4CCCCC4)cc3C(=O)N([C@H](C)CO)C[C@H]2C)cc1`: the relative growth was inactive: 0.981.

For the compound `C[C@@H]1CN([C@@H](C)CO)C(=O)CCCn2cc(nn2)CO[C@H]1CN(C)C(=O)Nc1cccc(C(F)(F)F)c1`, the relative growth was inactive: 1.01. The value for `C[C@@H]1CCCCO[C@H](CN(C)S(=O)(=O)c2ccc(F)cc2)[C@@H](C)CN([C@@H](C)CO)C(=O)c2cc(NS(=O)(=O)c3cn(C)cn3)ccc2O1` was inactive: 0.996; that for `COCC#Cc1ccc([C@@H]2[C@@H](CO)N3C(=O)CN(C(=O)c4ccncc4)C[C@H]23)cc1` was inactive: 1.02. The result for `C[C@H](CO)N1C[C@H](C)[C@@H](CN(C)S(=O)(=O)c2cn(C)cn2)Oc2ccc(NC(=O)Cc3cn(C)c4ccccc34)cc2CC1=O` reads inactive: 0.987. The result for `CC(=O)OC1CC2CCC3C(CCC4(C)C3CC([N+]3(C)CCCCC3)C4OC(C)=O)C2(C)CC1N1CCCCC1.[Br-]` (stereo not given) reads inactive: 1.03; that for `O=C(O)C1CSCN1` (stereo not given), inactive: 0.94; that for `COc1ccc(C[C@H](N)C(=O)N[C@H]2[C@@H](O)[C@H](n3cnc4c(N(C)C)ncnc43)O[C@@H]2CO)cc1`, inactive: 0.472. As to `C[C@@H]1CN([C@@H](C)CO)S(=O)(=O)c2ccc(Br)cc2O[C@H]1CN(C)S(=O)(=O)c1ccc(F)cc1`, the relative growth was inactive: 1.02. The result for `C[C@@H]1CCCCO[C@H](CN(C)C(=O)NC2CCCCC2)[C@H](C)CN([C@H](C)CO)C(=O)c2cc(NC(=O)c3ccccc3)ccc2O1` reads inactive: 0.999; that for `O=C(NCC(F)(F)F)[C@@H]1c2ccccc2C(=O)N(Cc2cc(C(F)(F)F)cc(C(F)(F)F)c2)[C@H]1c1ccc(CO)cc1`, inactive: 0.928. The value for `C[C@H](CO)N1C[C@H](C)[C@@H](CN(C)S(C)(=O)=O)Oc2ccc(NC(=O)Cc3ccccc3)cc2C1=O` was inactive: 0.98. The result for `COc1ccc(CN(C)C[C@@H]2OCCCC[C@H](C)Oc3ccc(NC(=O)c4ccncc4)cc3C(=O)N([C@H](C)CO)C[C@H]2C)cc1` reads inactive: 1.01. `C[C@H](CO)N1C[C@H](C)[C@@H](CN(C)C(=O)c2ccccn2)Oc2cc(Br)ccc2S1(=O)=O`: the relative growth was inactive: 1.01. Consider `COc1ccc(NC(=O)Nc2ccc3c(c2)C(=O)N([C@H](C)CO)C[C@H](C)[C@H](CN(C)S(=O)(=O)c2ccc(C)cc2)OCCCC[C@H](C)O3)cc1`, for which the relative growth is inactive: 1.03. The result for `CC[C@@H](O[Si](C#C[Si](C(C)C)(C(C)C)C(C)C)(C(C)C)C(C)C)c1cn([C@H](CO)Cc2ccccc2)nn1` reads inactive: 0.989; that for `C[C@H]1CN([C@@H](C)CO)C(=O)Cc2cc(NC(=O)NC3CCCCC3)ccc2O[C@H]1CN(C)Cc1ccc(-c2ccccc2)cc1`, inactive: 0.994; that for `Cc1ccc(S(=O)(=O)Nc2ccc3c(c2)C(=O)N([C@H](C)CO)C[C@@H](C)[C@H](CN(C)CC2CCCCC2)OCCCC[C@@H](C)O3)cc1`, inactive: 0.981. The value for `C[C@@H]1CN([C@@H](C)CO)C(=O)c2cccc(NC(=O)Nc3ccc4c(c3)OCO4)c2O[C@@H]1CN(C)C(=O)Nc1cccc2ccccc12` was inactive: 0.941. As for `CO[C@H]1CN(C)C(=O)c2cc(NC(=O)NC(C)C)ccc2OC[C@H](C)N(Cc2ccc(-c3ccccn3)cc2)C[C@H]1C`, the relative growth was inactive: 1.01. The value for `CO[C@@H](CN(C)C(=O)c1ccccc1F)[C@@H](C)CN([C@H](C)CO)S(=O)(=O)c1ccc(Cl)cc1` was inactive: 0.985; that for `CN(C)c1nc(SCC(N)=O)nc(N(C)C)n1` was inactive: 0.995. The result for `O=C(CCCCCCC(=O)Nc1ccc([C@H]2O[C@@H](CSc3ccncc3)C[C@@H](c3ccccc3)O2)cc1)NO` reads inactive: 1.02; that for `CC(C)(CN)CN1CCCCCC1`, inactive: 1.03. The value for `COc1ccc(S(=O)(=O)N(C)C[C@@H]2OCCCC[C@H](C)Oc3ccc(NC(=O)CCC(F)(F)F)cc3C(=O)N([C@@H](C)CO)C[C@H]2C)cc1` was inactive: 1.03. On to `CC(C)C#Cc1cnc2c(c1)C(=O)N([C@H](C)CO)C[C@@H](C)[C@H](CN(C)S(=O)(=O)c1cn(C)cn1)O2`, for which the relative growth is inactive: 1.01.

Turning to `COc1ccc(S(=O)(=O)N(C)C[C@H]2Oc3ccc(NC(=O)Cc4ccccc4)cc3CC(=O)N([C@H](C)CO)C[C@@H]2C)cc1`, the relative growth is inactive: 1.02. For the compound `C[C@H](CO)N1C[C@H](C)[C@@H](CN(C)S(=O)(=O)c2ccc(F)cc2)Oc2ccc(NC(=O)Cc3ccccc3)cc2CC1=O`, the relative growth was inactive: 1. The result for `COc1ccc(S(=O)(=O)N(C)C[C@H]2Oc3c(NC(=O)NC(C)C)cccc3C(=O)N([C@@H](C)CO)C[C@@H]2C)cc1` reads inactive: 1.01; that for `Cc1noc(C)c1NC(=O)N(C)C[C@H]1Oc2ccc(NS(=O)(=O)c3cn(C)cn3)cc2CC(=O)N([C@@H](C)CO)C[C@H]1C`, inactive: 0.977; that for `C[N+](C)(C)CCCCNC(=O)[C@@H]1C[C@@H]2C(=O)N[C@@H](CCCC[N+](C)(C)C)C(=O)N2[C@@H]1c1ccc(O)cc1`, inactive: 1.01. The result for `C[C@H](CO)N1C[C@H](C)[C@@H](CN(C)CC2CC2)Oc2c(NS(=O)(=O)c3cn(C)cn3)cccc2C1=O` reads inactive: 0.999; that for `COC1CNC1`, inactive: 0.968. The value for `C[C@@H]1CCCCO[C@@H](CN(C)C(=O)Nc2ccc(C(F)(F)F)cc2)[C@H](C)CN([C@@H](C)CO)C(=O)c2cc(NC(=O)c3ccncc3)ccc2O1` was inactive: 0.925; that for `CCCN(C)C[C@@H]1OCCCC[C@@H](C)Oc2ccc(NC(=O)CCC(F)(F)F)cc2C(=O)N([C@H](C)CO)C[C@@H]1C` was inactive: 1.

Turning to `CCS(=O)(=O)N1CCN(C[C@@H](C)O)CC1`, the relative growth is inactive: 0.984. Take `COCC(=O)N(C)C[C@@H]1Oc2cc(C#Cc3ccccc3)ccc2S(=O)(=O)N([C@@H](C)CO)C[C@@H]1C`: the relative growth was inactive: 1.06. The result for `C[C@H]1CCCCO[C@@H](CN(C)Cc2ccccc2)[C@@H](C)CN([C@@H](C)CO)C(=O)c2cc(NC(=O)Cc3ccccc3)ccc2O1` reads inactive: 0.988.

`COc1cccc(S(=O)(=O)Nc2ccc3c(c2)OC[C@@H](C)N(C(=O)Cc2cccnc2)C[C@@H](C)[C@@H](OC)CN(C)C3=O)c1`: the relative growth is inactive: 1.

Take `C[C@H](CO)N1C[C@H](C)[C@H](CN(C)C(=O)Nc2ccc(F)cc2)OCCCC[C@H](C)Oc2ccc(NC(=O)C3CCOCC3)cc2C1=O`: the relative growth was inactive: 0.981.

`C[C@@H]1CN([C@H](C)CO)C(=O)Cc2cc(NC(=O)CCN3CCOCC3)ccc2O[C@@H]1CN(C)C(=O)Nc1ccc(F)cc1`: the relative growth is inactive: 1.05. Take `COc1cccc(-c2ccc3c(c2)O[C@@H](CN(C)C(=O)C2CCOCC2)[C@@H](C)CN([C@H](C)CO)S3(=O)=O)c1`: the relative growth was inactive: 0.972. The result for `C[C@H]1CN([C@@H](C)CO)C(=O)c2cc(NC(=O)c3ccncc3)ccc2O[C@H]1CN(C)S(=O)(=O)c1ccccc1` reads inactive: 1.01; that for `C[C@@H]1CN([C@@H](C)CO)C(=O)c2cc(NS(=O)(=O)c3ccccc3)ccc2O[C@H]1CN(C)Cc1ccc(Cl)c(Cl)c1`, inactive: 1.01; that for `C[C@H](O)C#Cc1ccc2c(c1)O[C@H](CN(C)C(=O)Cc1ccccn1)[C@@H](C)CN([C@@H](C)CO)S2(=O)=O`, inactive: 1.01. The result for `C[C@@H]1CN([C@@H](C)CO)S(=O)(=O)c2ccc(C#Cc3ccccc3F)cc2O[C@H]1CN(C)C(=O)c1ccc2c(c1)OCO2` reads inactive: 1.03; that for `CC(=O)N[C@@H]1CC[C@H](CCNC(=O)C2CC2)O[C@H]1CO`, inactive: 0.967; that for `C[C@@H]1CN([C@H](C)CO)C(=O)c2cc(NS(=O)(=O)c3ccc(Cl)cc3)ccc2O[C@@H](C)CCCCO[C@H]1CN(C)Cc1ccc2c(c1)OCO2`, inactive: 0.975.
